# Measured values reported in PubChem BioAssay (Tox21).
# Where “and” joins values, the source holds several entries; their conditions need not be identical. Identical values can stand only once. The inconclusive results got no clear call from the source; some entries with a clear call stand among them for comparison. A potency beside an inconclusive call is a rough fit, not a confirmed value. Calls of active or inactive are those of the source. Unless noted, calls follow the shape of the dose curve; as a rule, active = well fitted curve in the direction sought with a large enough effect in the repeat runs; inconclusive = weak or mixed curves; inactive = no such curve, though single readings can be large; an effect the other way counts as inactive or inconclusive.
# What was measured:
# [1] = qHTS assay for identifying genotoxic compounds that show differential cytotoxicity against isogenic chicken DT40 cell lines with known DNA damage response pathways - wild type cell line (AID 743012); settings: DT40 wild type chicken cells viability, CellTiter-Glo, 40 h; activity change, negative = cytotoxicity: at 68.4 µM (top of the series) unless noted; also: nearly all actives have a fitted effect of over 60% in size; as to activity change, negative = cytotoxicity: % is scaled to controls: 0 for no effect and ±100 for the full control effect
# Procedure, shortened: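 Endpoint: CellTiter-Glo luminescence, 30 min RT. Cells: wild type DT40, 300/well. Exposure: compounds in DMSO, 40 h, 37 C/5% CO2, after ~0.5 h pre-incubation.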
# [2] = qHTS assay for identifying genotoxic compounds that show differential cytotoxicity against isogenic chicken DT40 cell lines with known DNA damage response pathways - Rad54/Ku70 mutant cell line (AID 743015); settings: DT40 Rad54/Ku70 mutant viability, CellTiter-Glo, 40 h; activity change, negative = cytotoxicity: at 66.8 µM (top of the series); also: nearly all actives have a fitted effect of over 60% in size; as to activity change, negative = cytotoxicity: % is scaled to controls: 0 for no effect and ±100 for the full control effect
# [3] = target: Androgen receptor (Homo sapiens) (UniProt P10275); assay: qHTS assay to identify small molecule antagonists of the androgen receptor (AR) signaling pathway (AID 743035; active = well fitted inhibition curve with a large enough effect in the signal ratio in the repeat runs, not every such curve was filed as active; inconclusive = weak or mixed curves, or effect the other way; inactive = no such curve, though single readings can be large or run the other way; the % refers to the signal ratio; as to activity change, negative = inhibition: % is scaled to controls: 0 for no effect and ±100 for the full control effect); settings: HEK293 AR-UAS-bla, R1881-stimulated, beta-lactamase FRET, 16 h; activity change, negative = inhibition: at 58.5 µM (top of the series) unless noted
# Procedure, shortened: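 R1881 agonist challenge of a HEK293 UAS-beta-lactamase AR reporter line in the presence of compound (16 h, 37C); signal taken as FRET fluorescence after 2 h with LiveBLAzer B/G substrate at room temperature.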
# [4] = qHTS assay for identifying genotoxic compounds that show differential cytotoxicity against isogenic chicken DT40 cell lines with known DNA damage response pathways - Rev3 mutant cell line (AID 743014); settings: chicken DT40 Rev3-/- viability, CellTiter-Glo, 40 h; activity, negative = cytotoxicity: at 68.4 µM (top of the series) unless noted; also: nearly all actives have a fitted effect of over 55% in size
# [5] = qHTS assay to identify small molecule antagonists of the androgen receptor (AR) signaling pathway - cell viability counter screen (AID 743033; also: nearly all actives have a fitted effect of over 45% in size; as to activity change, negative = cytotoxicity: % is scaled to controls: 0 for no effect and ±100 for the full control effect); settings: AR-bla HEK293 viability, CellTiter-Glo luminescence, 16 h; activity change, negative = cytotoxicity: at 58.5 µM (top of the series) unless noted
# Potency is read from the fitted curve at half-maximal effect; tags tell the direction and shape of the fitted curve.
# UniProt P10275, sequence (P10275 whole entry, looked up): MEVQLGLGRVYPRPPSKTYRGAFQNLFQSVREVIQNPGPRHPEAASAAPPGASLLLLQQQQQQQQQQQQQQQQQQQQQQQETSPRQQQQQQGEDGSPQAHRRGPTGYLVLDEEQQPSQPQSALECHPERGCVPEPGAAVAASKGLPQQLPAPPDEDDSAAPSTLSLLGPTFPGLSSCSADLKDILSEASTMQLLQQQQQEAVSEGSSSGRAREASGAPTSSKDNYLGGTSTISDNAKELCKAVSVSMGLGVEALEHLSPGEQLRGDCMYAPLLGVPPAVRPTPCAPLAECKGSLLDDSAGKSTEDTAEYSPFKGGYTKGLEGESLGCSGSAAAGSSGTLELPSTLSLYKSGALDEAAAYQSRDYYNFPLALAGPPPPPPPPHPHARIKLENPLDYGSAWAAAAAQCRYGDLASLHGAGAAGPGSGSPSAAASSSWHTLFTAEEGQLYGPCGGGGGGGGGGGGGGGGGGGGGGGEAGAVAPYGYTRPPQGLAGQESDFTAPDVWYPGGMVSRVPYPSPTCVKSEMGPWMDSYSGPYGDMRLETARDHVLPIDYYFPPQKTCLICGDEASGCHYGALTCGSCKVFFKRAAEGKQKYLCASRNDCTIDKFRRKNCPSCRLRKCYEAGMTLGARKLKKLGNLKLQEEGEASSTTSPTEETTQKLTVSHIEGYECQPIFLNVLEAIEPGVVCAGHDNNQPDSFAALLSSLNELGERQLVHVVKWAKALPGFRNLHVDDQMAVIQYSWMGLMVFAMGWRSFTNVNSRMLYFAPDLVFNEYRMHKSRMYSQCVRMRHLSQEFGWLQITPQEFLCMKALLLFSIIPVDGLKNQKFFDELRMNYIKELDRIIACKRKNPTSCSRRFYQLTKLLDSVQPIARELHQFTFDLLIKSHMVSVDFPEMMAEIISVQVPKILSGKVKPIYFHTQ
smiles,measurement,setting,value
CCN(CC)CCOC(=O)C(c1ccccc1)C1CCCCC1 (stereo not given),Potency,[1],active: 21.1 µM
same,Potency,[2],active: 23.7 µM
CCCC(=O)OC/C=C(\C)CCC=C(C)C,Potency,[1],inactive
same,Potency,[2],inactive
CCOc1ccc2c(c1)C(C)CC(C)(C)N2 (stereo not given),Potency,[1],active: 27.3 µM
same,"activity change, negative = inhibition",[3],inconclusive: 17%
C1N2CN3CN1CN(C2)C3,"activity change, negative = cytotoxicity",[1],inconclusive: 13.1% [at 95 µM]
same,Potency,[3],inactive
COc1cccc2sc(N)nc12,Potency,[1],inactive
same,Potency,[3],"inconclusive: 62.1 µM [rising, partial curve, poor fit]"
CC(C)(Oc1ccc(C2CC2(Cl)Cl)cc1)C(=O)O (stereo not given),Potency,[1],"inconclusive: 29.8 µM [cytotoxic, partial curve, poor fit] and inactive"
same,Potency,[2],inconclusive: 33.5 µM [cytotoxic]
same,"activity change, negative = inhibition",[3],inconclusive: 11.1% and inconclusive: 4.86%
CC1(C)S[C@@H]2[C@H](NC(=O)C(C(=O)O)c3ccccc3)C(=O)N2[C@H]1C(=O)O (stereo not given in full),Potency,[4],"inconclusive: 26.6 µM [rising, partial curve, poor fit]"
Oc1ccc(/C=C/c2cc(O)cc(O)c2)cc1,Potency,[1],"inconclusive: 2.46 µM [rising, partial curve]"
same,Potency,[3],"inconclusive: 4.4 µM [rising, full curve, poor fit] and inconclusive: 7.76 µM [rising, full curve, poor fit]"
same,"activity change, negative = inhibition",[3],inconclusive: -55.8% [at 27 µM]
NC(=S)NNC(N)=S,Potency,[1],"inconclusive: 53.1 µM [rising, single point]"
same,Potency,[5],"inconclusive: 21.3 µM [cytotoxic, single point]"
CC(C)(O)CCCC1=CCC(C=O)CC1 (stereo not given),Potency,[1],"inconclusive: 73.1 µM [cytotoxic, single point]"
same,Potency,[2],"inconclusive: 73.1 µM [cytotoxic, single point]"
CC(=O)CC(=O)Nc1ccc(C)cc1C,Potency,[1],inactive
same,Potency,[3],inactive
O=C(O)CCCC(=O)O,Potency,[1],"inconclusive: 0.534 µM [rising, full curve, poor fit]"
same,Potency,[5],inactive
CC(=O)N(O)CCCCCNC(=O)CCC(=O)N(O)CCCCCNC(=O)CCC(=O)N(O)CCCCCN,Potency,[1],"inconclusive: 4.52 µM [rising, partial curve, poor fit]"
same,Potency,[3],"inconclusive: 10.2 µM [falling, single point]"
CCCCCCOC(=O)CCC,Potency,[1],inactive
same,Potency,[5],inactive
O=C1C(CCS(=O)c2ccccc2)C(=O)N(c2ccccc2)N1c1ccccc1 (stereo not given),Potency,[4],"inconclusive: 12.7 µM [rising, partial curve, poor fit]"
C=C(C)CS(=O)(=O)O,Potency,[1],"inconclusive: 19.3 µM [rising, single point]"
same,Potency,[3],inconclusive: 21.9 µM
CCCCc1ccc2nc(NC(=O)OC)[nH]c2c1,Potency,[1],active: 0.0569 µM
same,Potency,[2],active: 0.114 µM
same,Potency,[3],"inconclusive: 0.0811 µM [falling, full curve]"
Cn1cc[nH]c1=S,Potency,[1],inconclusive: 68.5 µM [single point]
same,Potency,[5],"inconclusive: 30.9 µM [cytotoxic, partial curve]"
CCCCCOC(C)=O,Potency,[1],"inconclusive: 68.6 µM [cytotoxic, single point]"
same,Potency,[5],"inconclusive: 61.6 µM [cytotoxic, single point]"
O=S1OCCO1,Potency,[1],inactive
same,Potency,[2],inactive
COC=O,Potency,[1],"inconclusive: 5.03 µM [cytotoxic, single point]"
same,Potency,[2],"inconclusive: 5.03 µM [cytotoxic, single point]"
CC(C)=CC(=O)O,Potency,[4],"inconclusive: 10.9 µM [cytotoxic, partial curve, poor fit]"
Nc1ccc(C(=O)Oc2ccccc2)c(O)c1,Potency,[1],active: 29.8 µM
same,Potency,[2],active: 29.8 µM
CC(C)c1ccccc1,Potency,[1],"inconclusive: 79.9 µM [rising, single point]"
same,Potency,[5],"inconclusive: 64 µM [cytotoxic, partial curve, poor fit]"
OCC1CC2CC1C1CCC(CO)C21 (stereo not given),Potency,[1],"inconclusive: 68.6 µM [cytotoxic, single point]"
same,Potency,[2],"inconclusive: 68.6 µM [cytotoxic, single point]"
COc1ccc(NS(=O)(=O)c2ccc(N)cc2)nn1,Potency,[4],"inconclusive: 11.4 µM [rising, partial curve, poor fit]"
ClCCOCCOCCCl,Potency,[1],inactive
same,Potency,[2],inactive
C=CCCCCCCCCC(=O)O,Potency,[1],"inconclusive: 24.3 µM [rising, single point]"
same,Potency,[2],"inconclusive: 61.1 µM [cytotoxic, single point]"
